Data published in PubChem BioAssay AID624296 (National Center for Advancing Translational Sciences (NCATS), 2012).
The campaign covered roughly 350,000 compounds. About 9,900 (2.8%) were called active. The inconclusive results got no clear call from the source; some entries with a clear call stand among them for comparison. Calls come from the whole dose curve; as a rule, active = well fitted activation curve with a large enough effect; inconclusive = small, poorly fitted or top-dose-only effect; inactive = no such curve, though single readings can be large or run the other way. Potencies of inconclusive entries are left out as doubtful fits.

Assay: A quantitative high throughput screen for small molecules that induce DNA re-replication in MCF 10a normal breast cells. Note: nearly all actives have a fitted effect of over 50% in size.
Conditions: MCF 10A DNA re-replication, Hoechst nuclear intensity, 48 h; series mostly up to 46.1 µM
Potency is the fitted concentration of half-maximal effect; tags give direction and shape of the fitted curve.

Structure (SMILES) | Potency
COC(=O)c1sc(-c2ccc(C(C)(C)C)cc2)cc1NC(=O)CSCC(=O)O | active: 14.6 µM
O=C(CCN1C(=O)/C(=C\c2ccccc2)SC1=S)NCCCN1CCOCC1 | inconclusive [activator, single point]
CC(C)CC1NC(=S)N(C2CCCCC2)C1=O (centres undefined) | active: 16.4 µM
CCc1ccc(Nc2nc(N)nc(CSc3nnnn3-c3ccccc3)n2)cc1 | inconclusive [activator, partial curve, poor fit]
COc1ccc(Nc2cc(Sc3ccc(OC)cc3)ncn2)cc1 | inconclusive [activator, partial curve]
Cc1cc(=O)oc2ccc(OCc3ccccc3)cc12 | inactive
CC1CC(C)CN(S(=O)(=O)CCNC(=O)c2ccc3c(c2)OCO3)C1 (centres undefined) | inactive
COCCNC(=O)C(=O)Nc1ccc2c(c1)N(S(=O)(=O)c1cccs1)CCC2 | inconclusive [activator, full curve, poor fit]
Cc1cccc(NC(=O)C2CCCN(c3cnccn3)C2)c1 (centres undefined) | active: 18.4 µM
Cc1cc(NCCC(C)C)n2nc(C)c(-c3ccccc3)c2n1 | active: 14.6 µM
CSC(=CC(=O)c1ccccc1)SC | inactive
CC1(C)CC(=O)C(N=Nc2ccc(-c3ccccc3)cc2)=C(O)C1 | active: 0.731 µM
CCN(C(=O)CN1C(=O)/C(=C/c2ccccc2F)SC1=S)C1CCS(=O)(=O)C1 (centres undefined) | inconclusive [activator, single point]
O=C(NNc1ccccc1)c1ccc(Cl)c(Cl)c1 | inconclusive [activator, single point]
COc1ccccc1CNC(=O)COC(=O)c1ccc(C)c(S(=O)(=O)N2CCOCC2)c1 | inactive
COc1cccc(OCc2cc(/C=N/NC(=O)c3ccn[nH]3)ccc2OC)c1 | inconclusive [activator, single point]
COc1ccc(C(=S)N2CCN(C)CC2)cc1 | inconclusive [activator, single point]
Cc1nc(N2CCN(Cc3ccc4c(c3)OCO4)CC2)c2oc3ccccc3c2n1 | active: 11.6 µM
N/C(=N\OC(=O)N1CCOCC1)c1ccccc1 | inconclusive [activator, single point]
Cc1cc(NC(=O)CSc2nnc(Cc3ccccc3)n2C)no1 | inconclusive [activator, partial curve, poor fit]
CCN1C(=O)[C@@H]2[C@@H](c3ccc(SC4CCCCC4)c(OC)c3)N3CCC[C@@]3(C(=O)OC)[C@@H]2C1=O | inactive
CCCC(=O)NC(c1ccc2c(c1)OCO2)c1cc(Cl)c2cccnc2c1O (centres undefined) | inconclusive [activator, single point]

Structure (SMILES) | Potency
CCc1cc(N2CCOCC2)cc2c1[nH]c1ccccc12 | inconclusive [activator, partial curve, poor fit]
Cc1ccc(C(=O)NCCC2=CCCCC2)cc1S(=O)(=O)N1CCOCC1 | inconclusive [activator, partial curve, poor fit]
O=C(C1CCN(S(=O)(=O)c2ccccc2)CC1)N1CCN(c2ccccc2)CC1 | inconclusive [activator, full curve, poor fit]
Nc1n[nH]c2cccc(Cl)c12 | inconclusive [activator, single point]
Cc1csc(NC(=O)CSc2nc3[nH]c(=O)cc(O)c3s2)n1 | active: 9.2 µM
Cc1ccc(C)c(C(=O)CCC(=O)Nc2ccc(N3CCN(C)CC3)cc2C)c1 | inconclusive [activator, single point]
CCCOc1ccc(C(=O)N/N=C/c2c[nH]c3ccc(Br)cc23)cc1 | inconclusive [activator, partial curve, poor fit]
COc1ccc(S(=O)(=O)N2CCCC(C(=O)NCc3ccc4c(c3)OCO4)C2)cc1 (centres undefined) | inactive
CC1CC(C)CN(c2nc(NCc3ccco3)nc(N)c2[N+](=O)[O-])C1 (centres undefined) | inconclusive [activator, single point]
COc1ccc(N(CC(=O)Nc2ccccc2C)S(=O)(=O)c2ccccc2[N+](=O)[O-])c(OC)c1 | inconclusive [activator, single point]
Cc1[nH]c2ccccc2c1/C=C/c1cc[n+](C)cc1 | inactive
O=c1c2ccccc2nnn1CSc1nnc(-c2cccs2)n1Cc1ccccc1 | inconclusive [activator, partial curve, poor fit]
CCCc1[nH]c2ccc(C(=O)OC)cc2c1CCC | inconclusive [activator, single point]
O=C(NC1CCN(Cc2ccccc2)CC1)c1ccccc1OCc1ccccc1Cl | inactive
Cc1cc(C)c(C)c(OCCOCCNCc2ccccc2)c1 | inconclusive [activator, partial curve, poor fit]
COc1cc(C(=O)Nc2ccc(S(=O)(=O)NC(C)(C)C)cc2)cc(OC)c1OC | inconclusive [activator, partial curve, poor fit]
CC(C)CNS(=O)(=O)c1cc(C(=O)OCC(=O)c2ccc3c(c2)OCCO3)c(Cl)cc1Cl | inconclusive [activator, partial curve, poor fit]
CCOC(=O)C1=NNC(C(=O)c2ccc(C)cc2)C1c1ccc(C)cc1 (centres undefined) | inconclusive [activator, partial curve]
Oc1ccccc1N1CCN(c2ncnc3scc(-c4ccccc4)c23)CC1 | active: 20.6 µM
CCCn1cnc2c(SCc3ccccc3Cl)nc(N)nc21 | inconclusive [activator, partial curve, poor fit]
Cc1ccc(C(=O)Nc2nc3ccc(S(C)(=O)=O)cc3s2)s1 | inconclusive [activator, partial curve, poor fit]
Cc1ccccc1NC(=O)c1cccc(N2C(=O)C3CCCCC3C2=O)c1 (centres undefined) | inactive
